Target: β-adrenergic subtype 1 Receptor (AR-β1) (Homo sapiens, UniProt P08588)
UniProt P08588, sequence (P08588 whole entry): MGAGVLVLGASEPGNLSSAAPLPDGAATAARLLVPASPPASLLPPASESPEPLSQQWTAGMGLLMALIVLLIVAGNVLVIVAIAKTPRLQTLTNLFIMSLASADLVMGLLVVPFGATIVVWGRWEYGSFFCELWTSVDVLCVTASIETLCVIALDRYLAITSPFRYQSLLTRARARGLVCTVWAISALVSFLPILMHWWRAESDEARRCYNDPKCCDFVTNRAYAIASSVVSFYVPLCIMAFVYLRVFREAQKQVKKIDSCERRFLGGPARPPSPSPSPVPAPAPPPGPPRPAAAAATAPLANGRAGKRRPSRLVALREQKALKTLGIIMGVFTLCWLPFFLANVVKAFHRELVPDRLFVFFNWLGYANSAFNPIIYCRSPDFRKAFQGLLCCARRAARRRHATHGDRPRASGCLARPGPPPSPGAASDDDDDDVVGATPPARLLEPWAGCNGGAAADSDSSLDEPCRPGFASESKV

Compound: Cc1ccc(OCC(O)C(C)NC(C)C)c2c1CCC2 (centres unmarked) [ICI118,551]
- fluorescent signal competed out (50 μM competitor, fluorescent ligand CGP12177 (FIG. 15)): approximately 30%
- BODIPY TMR CGP12177 fluorescence upon addition of ICI118,551 (AR-β1 corrals (FIG. 16)): only partially
